The chains are these.
B1: LINE1-mini (parent)
chain: GGCAGAGCUCAACACAGCGUGGCAAAGUGGCUGUGGCUAGACUGCC

The source gives no read counts; variants with many changes may rest on few reads.

In this series the parent is B1. Briefly: self-cleavage, relative activity (ratio to wild type); higher = more cleavage; in vitro, sequencing; the parent is a self-cleaving ribozyme.
Consider UGAAGAGCUCAUCACAGCGUGGCAAAGUGGCUGUGGCUAGACUGCC [G1U C3A A12U], for which the self-cleavage amounted to 0.14.

Regarding UGAAGAGCUCCACACAGCGUCCAAAAGUGGCGGUGGCUAGACUGCC [G1U C3A A11C G21C G22C C23A U32G], the self-cleavage was found to be 0.03.

With UGCAGAGCUCAACACAGCGUGGCAACGUGGCUUUGGCUAGUCUGCC [G1U A26C G33U A41U], the self-cleavage worked out at 0.04.

For UGCAGAGAUAAACACAGCGUGGCAAAGUGGCUGUGGCGAGACUACC [G1U C8A C10A U38G G44A], the self-cleavage is 0.

Take UGAACAGCUCAACACAGCGAGGCAAAGUGGCUGUGGAUAGACUGCC [G1U C3A G5C U20A C37A]: the self-cleavage was 0.14.

As to UGGAGAGUUUAACACAGCGUGGCUAAGUGGCUGUGGAUUGACUGCC [G1U C3G C8U C10U A24U C37A A39U], the self-cleavage stood at 0.1.

As to UGAAGAGCUCAACACAGCGUGGAAAAGUGGUUGAAGCUAGACUGCC [G1U C3A C23A C31U U34A G35A], the self-cleavage came out at 0.06.

Turning to UGAAGAGCUCAACACAGCGUGGUAAAGUGGCUGUUGCUAGAAUGGC [G1U C3A C23U G35U C42A C45G], the self-cleavage stood at 0.65.

For UGCAGAGCUCAACACAGCGUGGCAUAGUGGCUGUGGUUAGAAUGCC [G1U A25U C37U C42A], the self-cleavage is 0.01.

For the variant UGCAGAGCUCAACACAGCGUGGCAACUUGGCUGUGGCUAGACUGCC [G1U A26C G27U], the self-cleavage worked out at 0.31.

As to UGGAGAGCGCAACACAGCGUGGAAAAGUGGCUGUGGCUAGACUGAC [G1U C3G U9G C23A C45A], the self-cleavage is 0.07.

As for UGCAGAGCUCAACACAGCGUGGCAAAGUGGCUGUGGCUAGGCUGCG [G1U A41G C46G], the self-cleavage is 0.13.

Take UGCAGAGGUCAACACAGCGUGGCAAAGUGGCUGUGGCUAGACUGAC [G1U C8G C45A]: the self-cleavage was 0.02.

Consider UGCAGAGAUCAACACAGCGUGGCAAUGUGGCUGUGGUUAGCCUGCC [G1U C8A A26U C37U A41C], for which the self-cleavage is 0.08.

For the variant UGCAGAGUACUACACUGCGUGGCAAAGUGGCUAUGUCUAGACUGCC [G1U C8U U9A A11U A16U G33A G36U], the self-cleavage was 0.

For UGCAGAGGUCAUCACAGCGUGGCAAAGUGGCUGUGGCUAUACUGCC [G1U C8G A12U G40U], the self-cleavage was determined as 0.02.

With UGCAGAGGUCAACACAGCGUGCCAAAGUGGCUGUUGCUAGACUGCA [G1U C8G G22C G35U C46A], the self-cleavage is 0.02.

Take UGUAGAGCUAAACACAGUGUGGCUAAGUGGCUGUGUCUAGACUGCC [G1U C3U C10A C18U A24U G36U]: the self-cleavage was found to be 0.01.

Consider UGCAGAGCUCAACACAGCGUGGCAAAGUGGCUGUGGCUUGGCUGCC [G1U A39U A41G], for which the self-cleavage stood at 0.05.

Turning to UGCAGAGAUCAACACAGCGUGGCAAAGUGGCUUUGGCUAGACUGCC [G1U C8A G33U], the self-cleavage came out at 0.06.

Take UGCAGAGAUCAACACAGUGUGGCAAAGUGGCUGUGGCUAGACUGCC [G1U C8A C18U]: the self-cleavage was 0.41.

With UGCAGAGGUCAACACAGCGUGGCAAAGUUGCUGUGGCUAGACUGCC [G1U C8G G29U], the self-cleavage came to 0.02.

In the case of UGCAGAGCUCAACACAGCGUGGCACAGUUGCAGUGGCUAGACUGCC [G1U A25C G29U U32A], the self-cleavage came out at 0.02.

Take UGAAGAGCUCAACACAGCGUGGCAAAGGGGCUGUGGCUAGACUGCG [G1U C3A U28G C46G]: the self-cleavage is 0.53.

In the case of UGCAGAGUUCAACACGGCUUGGCAAAGUGGAUGUGGCUAGACUGCC [G1U C8U A16G G19U C31A], the self-cleavage was found to be 0.03.

Consider UGGAGAGCUCAACAAAGCGUGGCAAAGUGGCUGUGGCUAGACUGCC [G1U C3G C15A], for which the self-cleavage came to 0.27.

On to UGGAGAGCUCAACACAGCGUUGCAAAGUGGCUAUGGGUUGAUUGCC [G1U C3G G21U G33A C37G A39U C42U], for which the self-cleavage came out at 0.01.

UGCAGAGACCAACACAGCGUGGCAAAGUGGCUGGGGCUAGACUGCC [G1U C8A U9C U34G]: the self-cleavage was 0.01.

Take UGUAGAGCUCAACACAGCGUCGCAAAGUGCCUGUGGCUAGACUGCC [G1U C3U G21C G30C]: the self-cleavage stood at 1.63.

In the case of UGCAGAGCUCAACACAGCGUGGCAAUGUGGCCGUGGCUAGACUGUC [G1U A26U U32C C45U], the self-cleavage amounted to 0.03.

Regarding UGAAGAGCUCAACAAAGCGUGGCAAACUGGCUGUCGCUAGACUGCC [G1U C3A C15A G27C G35C], the self-cleavage is 0.28.

As to UGCAGAGGUCAACACAGCAUGGCAAAGUGGCUGUGGCUAGACUGCC [G1U C8G G19A], the self-cleavage was determined as 0.12.

As to UGGAGAGCUAAACACAGCGUGGCAAAGUUCUUGUGGCUAAUCUGUC [G1U C3G C10A G29U G30C C31U G40A A41U C45U], the self-cleavage is 0.01.

Take UGAAGAGCUAAACACAGCGUGGCAACGUGGCUGUGGGUAGACUGCC [G1U C3A C10A A26C C37G]: the self-cleavage came to 0.03.

As to UGAAGAGCUCAACACAUCGUGGCAAAGUGGCUGUGGCUAGACUGCC [G1U C3A G17U], the self-cleavage turned out to be 0.49.

Consider UGCAGAGUUCAACACAGCUUGGCAAAGUUGCUGCGGCUAGACUGCC [G1U C8U G19U G29U U34C], for which the self-cleavage came to 0.03.

In the case of UGGAGAGCUCAACACAGCGGGGCAAAGUGGCUGUGGCUAGACUGCC [G1U C3G U20G], the self-cleavage was 0.19.

For UGCAGAGCUCAACACAGCGUGGCAAGGUGGCAGUGGGUAGACUGCC [G1U A26G U32A C37G], the self-cleavage turned out to be 0.05.

As for UGCAGAGAUCAACACAGCGUGGCAAAGUGGCUGUUGCUAGAAUGCC [G1U C8A G35U C42A], the self-cleavage worked out at 0.07.

As for UGGAGAGGUCAACACAGCGUGGCAAAGUCGCAGUGGCUAGACUGGC [G1U C3G C8G G29C U32A C45G], the self-cleavage was 0.03.

Turning to UGGAGAGCUCAACACAGCGUGGCAAUGUUGCUGUCGCUAGACUGCC [G1U C3G A26U G29U G35C], the self-cleavage was found to be 0.36.

On to UGCAGAGAUCAACACAGCGUGGCAAAGUGGUUGUGGCUAGACUUCC [G1U C8A C31U G44U], for which the self-cleavage was 0.02.

In the case of UGCAGAGAUCAACACAGCGUGGCAAAGUGGCUGUGGCUAUACUGCC [G1U C8A G40U], the self-cleavage came to 0.05.

As for UGUAGAACUCAACAUAGCGUGGCAAAGUGGCUGGGGCUAGACUGCC [G1U C3U G7A C15U U34G], the self-cleavage stood at 0.16.

For UGCAGAGAUCAACACAGCGUGGCAAAGAGGCUGUUGCUAGACUGCC [G1U C8A U28A G35U], the self-cleavage came out at 0.34.

Take UGCAGAGCUCAACACAGCGUGGCAAUGUGGCUGUGGCUAGACUGGC [G1U A26U C45G]: the self-cleavage turned out to be 0.1.

In the case of UGCAGAGAUCAAUACAGCGUGGCAAAGUGACUGUGGCUAGACUGCC [G1U C8A C13U G30A], the self-cleavage came out at 0.27.

For UGGAGAGCUCAACACAGCGUGGCAACGUGGCUGUGUCUAGACUGCC [G1U C3G A26C G36U], the self-cleavage worked out at 0.34.

As to UGUUGAGCUCAACACAGCGUGGCAAAGUGGCUGCGGCUAGACUGCC [G1U C3U A4U U34C], the self-cleavage turned out to be 0.02.

In the case of UGAAGAGCUGAACACAGCGUGGCAAAGUGGCUGUGGCUAGACUGCG [G1U C3A C10G C46G], the self-cleavage came out at 0.06.

Take UGCAGAGGUCAACCCAGCUUGGCAAAGAGGCUGUGGCUAGACUGCC [G1U C8G A14C G19U U28A]: the self-cleavage amounted to 0.

As for UGAAGAGCUCAACACAGCGUGGCAAAGUGGCUGUGGGUAGACUGCC [G1U C3A C37G], the self-cleavage was found to be 0.2.

In the case of UGCAGAGCUCAACACAGCGUGGCACAGUGGCUGUGGCCAGACUGCC [G1U A25C U38C], the self-cleavage was found to be 0.16.

On to UGGAGAGCUCAACACAGCGUGGCAAAGUGUCUGUGGCUCGACUGCC [G1U C3G G30U A39C], for which the self-cleavage is 0.03.

Take UGCAGAGCUCAACACAGCGUGGCAAAGUGGCUGUGGCUUGACUGUC [G1U A39U C45U]: the self-cleavage was 0.1.

As for UGCAGAGAUCAACACAGCGCGGCAAAGUGUUUGUGGCUAGACUGCC [G1U C8A U20C G30U C31U], the self-cleavage amounted to 0.03.

Source of the values: the RNAGym collection of RNA variant scans (doi:10.7554/elife.90254).
